{"source": "the supplement of paper PMC8728848", "binders": {"B1": {"name": "Banana lectin (Musa acuminata) (protein)", "chain": "MNGAIKVGAWGGNGGSAFDMGPAYRIISVKIFSGDVVDAVDVTFTYYGKTETRHFGGSGGTPHEIVLQEGEYLVGMKGEFGNYHGVVVVGKLGFSTNKKSYGPFGNTGGTPFSLPIAAGKISGFFGRGGDFIDAIGVYLEP"}}, "experiment_in_all_cases": "glycan array binding signal (z-score within array); higher = stronger binding", "conditions_in_all_cases": "glycan notation: IUPAC condensed, linker removed", "key": {"[1]": {"biological_target": "Fuc(a1-2)[GalNAc(b1-3)]Gal", "how_it_was_run": "(§1)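 Arrays were curated from the Consortium for Functional Glycomics database, 3228 in total, and kept only where the protein sequence was available. Binding is expressed as a within-array Z-score. This score was averaged across arrays of the same protein sequence at different concentrations or buffers and across linkers, and negative values can be read as non-binding.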"}, "[2]": {"biological_target": "Fuc(a1-3)GlcNAc", "how_it_was_run": "as §1"}, "[3]": {"biological_target": "Fuc(a1-3)[Gal(b1-4)]Glc6S", "how_it_was_run": "as §1"}, "[4]": {"biological_target": "Fuc(a1-3)[Gal(b1-4)]GlcNAc", "how_it_was_run": "as §1"}, "[5]": {"biological_target": "Fuc(a1-3)[Gal(b1-4)]GlcNAc(b1-2)Man", "how_it_was_run": "as §1"}, "[6]": {"biological_target": "Fuc(a1-3)[Gal(b1-4)]GlcNAc(b1-2)Man(a1-3)[Fuc(a1-3)[Gal(b1-4)]GlcNAc(b1-2)Man(a1-6)]Man(b1-4)GlcNAc(b1-4)GlcNAc", "how_it_was_run": "as §1"}, "[7]": {"biological_target": "Fuc(a1-3)[Gal(b1-4)]GlcNAc(b1-2)Man(a1-3)[Fuc(a1-3)[Gal(b1-4)]GlcNAc(b1-2)Man(a1-6)]Man(b1-4)GlcNAc(b1-4)[Fuc(a1-6)]GlcNAc", "how_it_was_run": "as §1"}, "[8]": {"biological_target": "Fuc(a1-3)[Gal(b1-4)]GlcNAc(b1-3)Gal(b1-3)[Fuc(a1-4)]GlcNAc", "how_it_was_run": "as §1"}, "[9]": {"biological_target": "Fuc(a1-3)[Gal(b1-4)]GlcNAc(b1-3)Gal(b1-4)[Fuc(a1-3)]GlcNAc", "how_it_was_run": "as §1"}, "[10]": {"biological_target": "Fuc(a1-3)[Gal(b1-4)]GlcNAc(b1-3)Gal(b1-4)[Fuc(a1-3)]GlcNAc(b1-3)Gal(b1-4)[Fuc(a1-3)]GlcNAc", "how_it_was_run": "as §1"}, "[11]": {"biological_target": "Fuc(a1-3)[Gal(b1-4)]GlcNAc(b1-3)GalNAc", "how_it_was_run": "as §1"}, "[12]": {"biological_target": "Fuc(a1-3)[Gal(b1-4)]GlcNAc(b1-6)GalNAc", "how_it_was_run": "as §1"}, "[13]": {"biological_target": "Fuc(a1-3)[Gal(b1-4)]GlcNAc(b1-6)[Gal(b1-3)GlcNAc(b1-3)]Gal(b1-4)Glc", "how_it_was_run": "as §1"}, "[14]": {"biological_target": "Fuc(a1-3)[Gal(b1-4)]GlcNAc6S", "how_it_was_run": "as §1"}, "[15]": {"biological_target": "Fuc(a1-3)[Gal3S(b1-4)]Glc", "how_it_was_run": "as §1"}, "[16]": {"biological_target": "Fuc(a1-3)[Gal3S(b1-4)]GlcNAc", "how_it_was_run": "as §1"}, "[17]": {"biological_target": "Fuc(a1-3)[Gal3S(b1-4)]GlcNAc6S", "how_it_was_run": "as §1"}, "[18]": {"biological_target": "Fuc(a1-3)[GalNAc(b1-4)]GlcNAc", "how_it_was_run": "as §1"}, "[19]": {"biological_target": "Fuc(a1-3)[GalNAc(b1-4)]GlcNAc6S", "how_it_was_run": "as §1"}, "[20]": {"biological_target": "Fuc(a1-4)GlcNAc", "how_it_was_run": "as §1"}, "[21]": {"biological_target": "Fuc(b1-3)GlcNAc", "how_it_was_run": "as §1"}, "[22]": {"biological_target": "Gal(a1-2)Gal", "how_it_was_run": "as §1"}, "[23]": {"biological_target": "Gal(a1-3)Gal", "how_it_was_run": "as §1"}, "[24]": {"biological_target": "Gal(a1-3)Gal(b1-3)GlcNAc", "how_it_was_run": "as §1"}, "[25]": {"biological_target": "Gal(a1-3)Gal(b1-3)GlcNAc(b1-2)Man", "how_it_was_run": "as §1"}, "[26]": {"biological_target": "Gal(a1-3)Gal(b1-3)GlcNAc(b1-2)Man(a1-3)[Gal(a1-3)Gal(b1-3)GlcNAc(b1-2)Man(a1-6)]Man(b1-4)GlcNAc(b1-4)GlcNAc", "how_it_was_run": "as §1"}, "[27]": {"biological_target": "Gal(a1-3)Gal(b1-3)GlcNAc(b1-3)GalNAc", "how_it_was_run": "as §1"}, "[28]": {"biological_target": "Gal(a1-3)Gal(b1-3)GlcNAc(b1-6)GalNAc", "how_it_was_run": "as §1"}, "[29]": {"biological_target": "Gal(a1-3)Gal(b1-3)[Fuc(a1-4)]GlcNAc(b1-2)Man(a1-3)[Gal(a1-3)Gal(b1-3)[Fuc(a1-4)]GlcNAc(b1-2)Man(a1-6)]Man(b1-4)GlcNAc(b1-4)GlcNAc", "how_it_was_run": "as §1"}, "[30]": {"biological_target": "Gal(a1-3)Gal(b1-4)Glc", "how_it_was_run": "as §1"}, "[31]": {"biological_target": "Gal(a1-3)Gal(b1-4)GlcNAc", "how_it_was_run": "as §1"}, "[32]": {"biological_target": "Gal(a1-3)Gal(b1-4)GlcNAc(b1-2)Man", "how_it_was_run": "as §1"}, "[33]": {"biological_target": "Gal(a1-3)Gal(b1-4)GlcNAc(b1-2)Man(a1-3)[Gal(a1-3)Gal(b1-4)GlcNAc(b1-2)Man(a1-6)]Man(b1-4)GlcNAc(b1-4)GlcNAc", "how_it_was_run": "as §1"}, "[34]": {"biological_target": "Gal(a1-3)Gal(b1-4)GlcNAc(b1-3)GalNAc", "how_it_was_run": "as §1"}, "[35]": {"biological_target": "Gal(a1-3)Gal(b1-4)GlcNAc(b1-6)GalNAc", "how_it_was_run": "as §1"}, "[36]": {"biological_target": "Gal(a1-3)Gal(b1-4)[Fuc(a1-3)]GlcNAc", "how_it_was_run": "as §1"}, "[37]": {"biological_target": "Gal(a1-3)Gal(b1-4)[Fuc(a1-3)]GlcNAc(b1-2)Man(a1-3)[Gal(a1-3)Gal(b1-4)[Fuc(a1-3)]GlcNAc(b1-2)Man(a1-6)]Man(b1-4)GlcNAc(b1-4)GlcNAc", "how_it_was_run": "as §1"}, "[38]": {"biological_target": "Gal(a1-3)GalNAc", "how_it_was_run": "as §1"}, "[39]": {"biological_target": "Gal(a1-3)[Gal(a1-4)]Gal(b1-4)GlcNAc", "how_it_was_run": "as §1"}, "[40]": {"biological_target": "Gal(a1-4)Gal(b1-3)GlcNAc(b1-2)Man(a1-3)[Gal(a1-4)Gal(b1-3)GlcNAc(b1-2)Man(a1-6)]Man(b1-4)GlcNAc(b1-4)GlcNAc", "how_it_was_run": "as §1"}, "[41]": {"biological_target": "Gal(a1-4)Gal(b1-4)Glc", "how_it_was_run": "as §1"}, "[42]": {"biological_target": "Gal(a1-4)Gal(b1-4)GlcNAc", "how_it_was_run": "as §1"}, "[43]": {"biological_target": "Gal(a1-4)Gal(b1-4)GlcNAc(b1-2)Man(a1-3)[Gal(a1-4)Gal(b1-4)GlcNAc(b1-2)Man(a1-6)]Man(b1-4)GlcNAc(b1-4)GlcNAc", "how_it_was_run": "as §1"}, "[44]": {"biological_target": "Gal(a1-4)Gal(b1-4)GlcNAc(b1-3)Gal(b1-4)Glc", "how_it_was_run": "as §1"}, "[45]": {"biological_target": "Gal(a1-4)GlcNAc", "how_it_was_run": "as §1"}}, "note": "The list shows a part of the results."}
{"binder": "B1", "values": [{"measurement": "glycan array binding signal (z-score)", "setting": "[1]", "value": -0.192}, {"measurement": "glycan array binding signal (z-score)", "setting": "[2]", "value": -0.196}, {"measurement": "glycan array binding signal (z-score)", "setting": "[3]", "value": -0.189}, {"measurement": "glycan array binding signal (z-score)", "setting": "[4]", "value": -0.193}, {"measurement": "glycan array binding signal (z-score)", "setting": "[5]", "value": -0.193}, {"measurement": "glycan array binding signal (z-score)", "setting": "[6]", "value": -0.17}, {"measurement": "glycan array binding signal (z-score)", "setting": "[7]", "value": -0.19}, {"measurement": "glycan array binding signal (z-score)", "setting": "[8]", "value": -0.191}, {"measurement": "glycan array binding signal (z-score)", "setting": "[9]", "value": -0.179}, {"measurement": "glycan array binding signal (z-score)", "setting": "[10]", "value": -0.197}, {"measurement": "glycan array binding signal (z-score)", "setting": "[11]", "value": -0.193}, {"measurement": "glycan array binding signal (z-score)", "setting": "[12]", "value": -0.194}, {"measurement": "glycan array binding signal (z-score)", "setting": "[13]", "value": -0.195}, {"measurement": "glycan array binding signal (z-score)", "setting": "[14]", "value": -0.192}, {"measurement": "glycan array binding signal (z-score)", "setting": "[15]", "value": -0.192}, {"measurement": "glycan array binding signal (z-score)", "setting": "[16]", "value": -0.192}, {"measurement": "glycan array binding signal (z-score)", "setting": "[17]", "value": -0.184}, {"measurement": "glycan array binding signal (z-score)", "setting": "[18]", "value": -0.183}, {"measurement": "glycan array binding signal (z-score)", "setting": "[19]", "value": -0.195}, {"measurement": "glycan array binding signal (z-score)", "setting": "[20]", "value": -0.195}, {"measurement": "glycan array binding signal (z-score)", "setting": "[21]", "value": -0.194}, {"measurement": "glycan array binding signal (z-score)", "setting": "[22]", "value": -0.191}, {"measurement": "glycan array binding signal (z-score)", "setting": "[23]", "value": -0.205}, {"measurement": "glycan array binding signal (z-score)", "setting": "[24]", "value": -0.192}, {"measurement": "glycan array binding signal (z-score)", "setting": "[25]", "value": -0.176}, {"measurement": "glycan array binding signal (z-score)", "setting": "[26]", "value": -0.168}, {"measurement": "glycan array binding signal (z-score)", "setting": "[27]", "value": -0.196}, {"measurement": "glycan array binding signal (z-score)", "setting": "[28]", "value": -0.194}, {"measurement": "glycan array binding signal (z-score)", "setting": "[29]", "value": 0.416}, {"measurement": "glycan array binding signal (z-score)", "setting": "[30]", "value": -0.199}, {"measurement": "glycan array binding signal (z-score)", "setting": "[31]", "value": -0.193}, {"measurement": "glycan array binding signal (z-score)", "setting": "[32]", "value": -0.195}, {"measurement": "glycan array binding signal (z-score)", "setting": "[33]", "value": -0.129}, {"measurement": "glycan array binding signal (z-score)", "setting": "[34]", "value": -0.194}, {"measurement": "glycan array binding signal (z-score)", "setting": "[35]", "value": -0.193}, {"measurement": "glycan array binding signal (z-score)", "setting": "[36]", "value": -0.194}, {"measurement": "glycan array binding signal (z-score)", "setting": "[37]", "value": -0.173}, {"measurement": "glycan array binding signal (z-score)", "setting": "[38]", "value": -0.194}, {"measurement": "glycan array binding signal (z-score)", "setting": "[39]", "value": -0.194}, {"measurement": "glycan array binding signal (z-score)", "setting": "[40]", "value": 0.227}, {"measurement": "glycan array binding signal (z-score)", "setting": "[41]", "value": -0.199}, {"measurement": "glycan array binding signal (z-score)", "setting": "[42]", "value": -0.199}, {"measurement": "glycan array binding signal (z-score)", "setting": "[43]", "value": -0.166}, {"measurement": "glycan array binding signal (z-score)", "setting": "[44]", "value": -0.192}, {"measurement": "glycan array binding signal (z-score)", "setting": "[45]", "value": -0.194}]}
